Reference: PubChem BioAssay AID686979 (National Center for Advancing Translational Sciences (NCATS), 2013)
Screen size: about 420,000 compounds; about 50,000 (12%) were called active. Inconclusive results, whose numbers are uncertain, are shown with a selection of clear calls. Calls come from the whole dose curve; as a rule, active = well fitted inhibition curve with a large enough effect; inconclusive = small, poorly fitted or top-dose-only effect; inactive = flat fitted curve, though single readings scatter. Potencies of inconclusive entries are left out as doubtful fits.

Experiment: qHTS for Inhibitors of human tyrosyl-DNA phosphodiesterase 1 (TDP1): qHTS in cells in presence of CPT; note: nearly all actives have a fitted effect of over 55% in size
Conditions: chicken DT40 Tdp1-/-;hTDP1 cells + 20 nM CPT, ATP luminescence, 48 h; activity change, negative = growth inhibition: at 46.2 µM (top of the series) unless noted
How it was run: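 Chicken DT40 Tdp1-/- cells stably complemented with human TDP1 were seeded at 400 cells/well in medium containing 20 nM camptothecin, exposed to pin-transferred compounds, and grown at 37 °C for at least 48 hr. Viability was read as ATP luminescence.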
% is set by controls: 0 for no effect and ±100 for the full control effect; potency is the fitted concentration of half-maximal effect; tags give direction and shape of the fitted curve.

Compound | Potency | activity change, negative = growth inhibition
CCN(CC)C(=O)Cn1cc(C(=O)C(=O)N2CCc3ccccc32)c2ccccc21 | inconclusive [inhibitor, single point] | 
O=C(c1nnc(Cc2ccc(Cl)cc2)o1)N1CCc2ccccc2C1 | inconclusive [inhibitor, partial curve, poor fit] | 
CCOC(=O)C[n+]1c(C)ccc2c1CCC2 | inactive | 
CCC(=O)NCc1nc2ccccc2n1Cc1ccccc1 | inconclusive [inhibitor, single point] | 
O=C(NNC(=O)c1ccc2c(=O)n3c(nc2c1)CCC3)c1cccc(Cl)c1 | inconclusive [inhibitor, single point] | 
COc1ccc(N(CC(=O)N2CCN(Cc3ccccc3)CC2)S(C)(=O)=O)cc1 | inactive | 
CCOC(=O)C/C(C)=N/NC(=O)COc1ccccc1C | inactive | 
CCOC(=O)C1CCN(CC(=O)NC(=O)NC2CCCCC2)CC1 | inconclusive [inhibitor, single point] | 
CN(C)CCn1c2c(c(SCC(=O)Nc3cccc4ccccc34)nc1=O)CCCC2 | inconclusive [inhibitor, single point] | 
CCOC(=O)/C(=C/c1c(C)n(C)c2ccc([N+](=O)[O-])cc12)C(C)=O | inconclusive [inhibitor, single point] | 
Cc1c(C(=O)OCC(=O)N(C)Cc2ccc(Cl)cc2)oc2ccccc12 | inactive | 
CCc1cccc(NS(=O)(=O)c2ccc3c(c2)n(C)c(=O)n3C)c1 | active: 10.3 µM | 
O=C(COc1ccc(Cl)cc1)NNC(=O)CSc1nncs1 | inactive | 
Cc1ccc(OCC(=O)N2CCN(C(=O)CCC3CCCC3)CC2)cc1 | inconclusive [inhibitor, single point] | 
Clc1ccc(OCc2cnc(Cl)s2)cc1 | inactive | 
CC(=O)C1=C(C)NC(SCC(=O)c2ccc(F)cc2)=C(C#N)C1c1ccco1 (centres undefined) | inconclusive [inhibitor, single point] | 
NS(=O)(=O)c1ccc(N2CCOCC2)c(C(=O)NCc2cccs2)c1 | inactive | 
O=[N+]([O-])c1ccc2c(c1)/C(=C/c1ccc(C=S)cc1)C=C2 | inconclusive [inhibitor, single point] | 
Cc1ccccc1OC1CCN(C(=O)c2cc(COc3ccccc3)on2)CC1 | inactive | 
COc1ccc(CNc2ncncc2-c2cccc(C#N)c2)c(OC)c1 | inconclusive [inhibitor, single point] | 
COc1ccc(NC(=O)c2ccc3c(c2)C(=O)N(Cc2ccncc2)C3=O)cc1S(N)(=O)=O | inactive | 
COc1ccccc1CC(=O)Nc1cc2oc3ccccc3c2cc1OC | active: 25.9 µM | 
Cc1cc(C)nc(NC(=O)c2c(-c3ccccc3Cl)noc2C)c1 | inconclusive [inhibitor, single point] | 
O=C1NC(c2ccc(Cl)cc2)Oc2ccccc21 (centres undefined) | inactive | 
COC(=O)c1ccc(OC(=O)c2cccnc2SC)cc1 |  | inconclusive: -27% [inhibitor]

Compound | Potency | activity change, negative = growth inhibition
Cc1ccc(C(=O)N2CCN(c3ccc(NC(=O)Cc4ccccc4)cc3)CC2)cc1 | inconclusive [inhibitor, single point] | 
NC(=O)c1ccsc1NC(=O)c1ccc(S(=O)(=O)N2CCCCC2)cc1 | inconclusive [inhibitor, single point] | 
Cc1ccc(C(=O)OCC(=O)NCc2ccccc2)s1 | inactive | 
O=C1COc2ccc(S(=O)(=O)Nc3ccc(OC(F)(F)F)cc3)cc2N1 | inactive | 
COCCCNc1nc2c(-c3cccc(Br)c3)nnn2c2ccccc12 | inconclusive [inhibitor, partial curve] | 
Cc1ccc(NC(=O)C(C)Sc2n[nH]c(CNc3ccccc3)n2)cc1 (centres undefined) |  | inconclusive: -34.2% [inhibitor]
COc1ccc(OC)c(NC(=O)c2sc3ncnc(N4CCN(c5ccccn5)CC4)c3c2C)c1 | inconclusive [inhibitor, single point] | 
COC(=O)c1ccc2c(=O)n(CCCCCC(=O)N3CCN(c4cccc(C)c4C)CC3)c(=O)[nH]c2c1 | inconclusive [inhibitor, single point] | 
Cn1nc(-c2ccccc2F)c2cc(C(=O)N3CCN(c4ccccc4F)CC3)sc21 | active: 4.11 µM | 
CCOc1ccc(NC(=O)c2cc3nc(-c4ccc(OC)cc4)cc(C(F)(F)F)n3n2)cc1 | inactive | 
CN(CC(=O)Nc1ccc(F)cc1)C(=O)COC(=O)CSc1ccc(F)cc1 | inactive | 
OCCCc1nc2n(n1)C(c1ccccc1)C=C(c1ccc(F)cc1)N2 (centres undefined) | inactive | 
CCOC(=O)c1c(C)[nH]c(C)c1S(=O)(=O)N1CCC(C(=O)NCc2ccc(OC)cc2)CC1 | inactive | 
O=C1C(=C(c2ccccc2)N2CCOCC2)Cc2ccccc21 | active: 1.16 µM | 
Cc1c(NC(=O)Cc2ccccc2)cccc1-c1nc2cccnc2s1 | inconclusive [inhibitor, single point] | 
CCOc1ccc(NC(=O)CN2CCN(c3ccc(F)cc3)CC2)cc1S(=O)(=O)N1CCCC1 | inconclusive [inhibitor, partial curve] | 
CC(=O)c1cccc(NC(=O)C2C(c3ccccc3)C2(Cl)Cl)c1 (centres undefined) | inactive | 
CCS(=O)(=O)N1CCc2cc(C(=O)NCc3ccc(C)cc3)ccc21 | inconclusive [inhibitor, single point] | 
Cc1cc(C)c(C(=O)c2ccc(C(=O)N3CCCCC3)cc2)c(C)c1 | inactive | 
CN1CCN(c2ncncc2-c2cccnc2)CC1 | inconclusive [inhibitor, partial curve, poor fit] | 
CCN1CCN(CCCNC(=O)C(=O)c2c(C)[nH]c3ccccc23)CC1 | inactive | 
COc1ccc(-n2c(=O)/c(=C\c3cccs3)s/c2=C(/C#N)C(=O)NCCN2CCOCC2)cc1 | active: 13 µM | 
O=C(NCc1ccccc1)C(c1cccc2ccccc12)n1c(=O)c(-c2ccco2)nc2ccccc21 (centres undefined) | inconclusive [inhibitor, single point] | 
O=C(Nc1ccc(F)cc1F)c1ccc2ncsc2c1 |  | inconclusive: -30.8% [inhibitor]
COc1ccccc1CN1CCNC(=O)C1CC(=O)NCCc1cnccn1 (centres undefined) | inactive | 

Compound | Potency | activity change, negative = growth inhibition
COc1cc(NCCCCCCN)c2ncccc2c1OC | inconclusive [inhibitor, single point] | 
COC(=O)C(=Cc1ccncc1)c1cccc2ccccc12 | active: 6.51 µM | 
Cc1ccc(CSCc2ccc(C(=O)NCCC(C)C)o2)cc1 | inactive | 
Cc1cc(-c2nnc(CCC(=O)N(C)Cc3cccc4ccccc34)o2)no1 | inactive | 
CCN(CC)C(=O)Cn1cc(C(=O)C(=O)Nc2ccc3c(c2)OCO3)c2ccccc21 | inconclusive [inhibitor, single point] | 
Nc1c(C(=O)NCC2CCCO2)sc2nc3c(c(-c4ccco4)c12)CC/C3=C\c1ccco1 (centres undefined) | inconclusive [inhibitor, single point] | 
CCOC(=O)C1(Cc2ccccc2C)CCCN(C(=O)c2ccc3nccnc3c2)C1 (centres undefined) | inconclusive [inhibitor, single point] | 
Cc1nc(SC2C=CS(=O)(=O)C2)n[nH]1 (centres undefined) | inconclusive [inhibitor, partial curve] | 
S=C(NCc1ccco1)NCC1CCCO1 (centres undefined) | inactive | 
COc1ccc(-c2cnc3c(NC(C)=O)cc(-c4ccc(C(=O)N5CCOCC5)cc4)cn23)cc1OC | inconclusive [inhibitor, single point] | 
CCCC(c1nnnn1C1CCCC1)N1CCN(c2ccccc2F)CC1 (centres undefined) | inconclusive [inhibitor, single point] | 
Cn1c(-c2ccc(C(C)(C)C)cc2)n[nH]c1=S | inconclusive [inhibitor, single point] | 
O=C(Nc1ccc(Cl)cc1)C1=Cc2cc(Cl)ccc2OC1 | active: 18.4 µM | 
COc1ccc(CCNC(=O)C2CC3Cn4c(nc5cc6ccccc6cc54)C3N2C)cc1 (centres undefined) | active: 14.6 µM | 
CC(C)NC(=O)[C@@H]1C[C@@H](Sc2nc3ccccc3[nH]2)CN1C1Cc2ccccc2C1 | inconclusive [inhibitor, single point] | 
COc1cc(CN(C2CCCCC2C)S(=O)(=O)c2ccc(S(=O)(=O)NC3CC3)cc2)cc(OC)c1OC (centres undefined) | inconclusive [inhibitor, single point] | 
Cc1cc(S(=O)(=O)Nc2cc(C)c(O)c(C)c2)c(C)s1 | active: 2.59 µM | 
O=C(c1c[nH]c(C(=O)C(Cl)(Cl)Cl)c1)c1ccc(F)cc1Cl | inconclusive [inhibitor, single point] | 
O=C(Nc1ccc(OC(F)F)cc1)c1cc(S(=O)(=O)N2CCOCC2)ccc1N1CCCC1 | inconclusive [inhibitor, single point] | 
CC(C)Oc1ccc(/C(O)=C2/C(=O)C(=O)N(CCN(C)C)C2c2cccs2)cc1 (centres undefined) | inactive | 
CCOC(=O)C1C(C(=O)OC)=C(C2=CCCCC2)c2ccccc2N1S(=O)(=O)C(F)(F)F (centres undefined) | inconclusive [inhibitor, single point] | 
O=C(Cn1c(=O)c2sccc2n(Cc2cccc([N+](=O)[O-])c2)c1=O)NCCc1ccccc1 |  | inconclusive: -35.5% [inhibitor]
CCc1cc(SC#N)cc(C)c1NC(=O)CCl | active: 1.46 µM | 
Cc1cc(C(=O)Nc2cc(S(C)(=O)=O)ccc2Cl)no1 | inactive | 
